{
  "source": "PubChem BioAssay AID1240",
  "about": "(Sanford-Burnham Center for Chemical Genomics, 2008)",
  "note": "Screen size: about 50,000 compounds; about 800 (1.6%) showed an effect of 50% or more. Some of the results follow.",
  "data": [
    {"molecular_target": "Bcl-2-like protein 10 (Homo sapiens) (UniProt Q9HD36)", "sequence (Q9HD36 whole entry, looked up)": "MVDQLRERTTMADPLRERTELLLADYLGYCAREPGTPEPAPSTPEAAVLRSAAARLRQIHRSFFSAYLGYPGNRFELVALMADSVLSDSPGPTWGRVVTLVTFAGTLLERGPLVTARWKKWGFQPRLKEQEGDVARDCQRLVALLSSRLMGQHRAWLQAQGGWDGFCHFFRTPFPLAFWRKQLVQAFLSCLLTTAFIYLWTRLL", "assay": "TR3 peptide-Bcl-B binding displacers, biochemical primary FP assay, phenotype converters (AID 1240);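 note: 0% = Bcl-B with tracer peptide and DMSO and 100% = tracer peptide lacking Bcl-B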", "settings": "GST-Bcl-B / FITC-TR3 peptide fluorescence polarization; stronger effect = higher value; compound at 3.75 mg/L", "units": {"displacement": "%"}, "values": [
      {"compound": "O=C(NC(=C(Cl)Cl)S(=O)(=O)c1ccc(Cl)cc1)c1ccccc1", "displacement": 10.3},
      {"compound": "COc1ccc(NC(=O)/C(=C\\c2ccco2)NC(=O)c2ccco2)cc1", "displacement": -0.6},
      {"compound": "O=C(Nc1ccc2nn(-c3ccccc3)nc2c1)C(Cl)(Cl)Cl", "displacement": 3},
      {"compound": "c1ccc(-c2nc(C3COc4ccccc4O3)cs2)cc1", "note": "(stereo not drawn)", "displacement": -2.2},
      {"compound": "O=C(Nc1ccc(Nc2ccccc2)cc1)c1ccco1", "displacement": 1.8},
      {"compound": "COc1ccc(C(=O)NN2C(=O)C3C4C=CC(C5CC45)C3C2=O)cc1", "note": "(stereo not drawn)", "displacement": -6.1},
      {"compound": "O=C(CCCN1C(=O)/C(=C/c2ccc(F)cc2)SC1=S)Nc1cccc(C(=O)O)c1", "displacement": 38.1},
      {"compound": "O=C1c2ccccc2NC(c2ccccc2)N1c1ccc(Cl)cc1", "note": "(stereo not drawn)", "displacement": 5.1},
      {"compound": "C=CCOc1ccc(/C=C(\\C(=O)c2ccc(C)cc2)c2nc3ccccc3o2)cc1", "displacement": 5.9},
      {"compound": "Cc1ccccc1OC(=O)COc1ccc(Cl)cc1Cl", "displacement": -3.9},
      {"compound": "CCN1C(=O)/C(=C\\c2ccc([N+](=O)[O-])o2)SC1=S", "displacement": 11.3},
      {"compound": "O=C(Nc1c(-c2ccccc2)nc2ccc(Cl)cn12)c1cccs1", "displacement": 10.2},
      {"compound": "Cn1c2c(c3cc(C4CCCCC4)ccc31)CCCC2=O", "displacement": 13.7},
      {"compound": "CC1(C)CC(=O)C2=C(C1)c1c(ccc3ccccc13)NC2c1cc([N+](=O)[O-])ccc1N1CCOCC1", "note": "(stereo not drawn)", "displacement": -4.6},
      {"compound": "CCCCN(CN1C(=O)C2CC=C(Cl)CC2C1=O)CN1C(=O)C2CC=C(Cl)CC2C1=O", "note": "(stereo not drawn)", "displacement": -1.5},
      {"compound": "O=C(Nc1ccc(N2CCOCC2)cc1)c1cccc(Cl)c1Cl", "displacement": 14.2},
      {"compound": "O=C(Nc1cc(C(F)(F)F)ccc1Cl)c1nn2c(c1Br)NC(c1cccs1)CC2C(F)(F)F", "note": "(stereo not drawn)", "displacement": 6.4},
      {"compound": "CC(CCc1ccccc1)Nc1cc(N2CCN(S(=O)(=O)c3ccccc3)CC2)ccc1[N+](=O)[O-]", "note": "(stereo not drawn)", "displacement": 10.3},
      {"compound": "COCCNC(=O)COc1ccc(Cl)cc1C", "displacement": -6},
      {"compound": "Cc1ccc2nc3c(cc(C#N)c(=N)n3CCCN3CCOCC3)c(=O)n2c1", "displacement": -10.3},
      {"compound": "COCCOC(=O)c1ccc(NC(=O)COc2cc(C)c(Cl)c(C)c2)cc1", "displacement": 1.4},
      {"compound": "O=C(CN(Cc1ccccc1)Cc1ccccc1)NC12CC3CC(CC(C3)C1)C2", "displacement": -7.3},
      {"compound": "COc1cc(/C=N/n2cnnc2)cc(Br)c1OCCOc1ccc(C(C)(C)C)cc1", "displacement": -7.7},
      {"compound": "COc1ccc(C2C3=C(CC(C)(C)CC3=O)OC3=C2C(=O)CC(C)(C)C3)cc1C(=O)O", "displacement": -1.9},
      {"compound": "CC(CNS(=O)(=O)c1ccccc1)c1ccccc1", "note": "(stereo not drawn)", "displacement": -8.5},
      {"compound": "Cc1sc(NC(=O)COc2ccccc2)nc1-c1ccccc1", "displacement": -6.1},
      {"compound": "CCOc1cc(/C=C2/C(=O)NC(=O)N(c3ccc(OC)cc3)C2=O)cc(Cl)c1O", "displacement": 4.5},
      {"compound": "CSCCC(NC(=O)c1ccccc1)C(=O)OCC(=O)Nc1nnc(C)s1", "note": "(stereo not drawn)", "displacement": 6.4},
      {"compound": "CN(C)C1=C/C(=N/S(=O)(=O)c2ccccc2)c2ccccc2C1=O", "displacement": -2.8},
      {"compound": "O=C(Nc1ccc(N2CCOCC2)cc1)c1ccc([N+](=O)[O-])cc1", "displacement": 8.4},
      {"compound": "O=C(O)c1cn(-c2ccccc2)nc1-c1ccc(Br)cc1", "displacement": -11.3},
      {"compound": "O=C(Nc1ccc(Cl)c(Cl)c1)Nc1nnc(-c2ccccc2)s1", "displacement": 7.7},
      {"compound": "Cc1ccc(S(=O)(=O)NC(=NC(Cc2ccccc2)C(=O)O)c2ccccc2)cc1", "note": "(stereo not drawn)", "displacement": 14.2},
      {"compound": "CCOC(=O)c1c(NC(=O)c2cc([N+](=O)[O-])ccc2Cl)sc2c1CCC2", "displacement": 3.7},
      {"compound": "CC(=O)Nc1cc(-c2cccc(C)c2)[nH]n1", "displacement": 15.5},
      {"compound": "C/C(=C\\C(=O)OCCOC(=O)/C=C(\\C)NC1CC(C)(C)NC(C)(C)C1)NC1CC(C)(C)NC(C)(C)C1", "displacement": 5.4},
      {"compound": "S=c1[nH]nc(-c2ccccc2)n1/N=C/c1ccc(-c2ccccc2Cl)o1", "displacement": -3.6},
      {"compound": "O=C(O)CCCCCN1C(=O)C(=O)/C(=C(/O)c2ccccc2)C1c1ccc2c(c1)OCO2", "note": "(stereo not drawn)", "displacement": -11.1},
      {"compound": "Cn1c2c(c3cc(C4CCCCC4)ccc31)CCC/C2=N\\O", "displacement": -7.9},
      {"compound": "NC(=O)C1CCN(C(=O)c2ccccc2NC(=O)c2ccccc2Br)CC1", "displacement": -7.1},
      {"compound": "COc1cccc(C(=O)N2N=C(c3cccc([N+](=O)[O-])c3)CC2(O)C(F)(F)F)c1", "note": "(stereo not drawn)", "displacement": 0.8},
      {"compound": "C=CCNC(=O)C(=O)N/N=C/c1ccccc1", "displacement": 6.1},
      {"compound": "O=C(Cc1ccc(Cl)cc1)NCc1ccco1", "displacement": 16.5},
      {"compound": "O=C(Nc1nc2ccccc2s1)c1ccc2c(c1)OCO2", "displacement": 5.7},
      {"compound": "COc1ccc(NC(=O)CC2CCC2)c(OC)c1", "displacement": 10.6},
      {"compound": "Cc1cccn2c(=O)c(/C=C3\\SC(=S)N(Cc4ccccc4)C3=O)c(N3CCOCC3)nc12", "displacement": -12.8},
      {"compound": "CN(CP(=O)(O)CCc1ccccc1)S(C)(=O)=O", "displacement": -1.2},
      {"compound": "CC(C)C(C(=O)O)N1C(=O)/C(=C\\c2ccccn2)SC1=S", "note": "(stereo not drawn)", "displacement": -2.2},
      {"compound": "O=C(Nc1cccc(C(F)(F)F)c1)C1C2C3CCC(C3)C12", "note": "(stereo not drawn)", "displacement": -1.2},
      {"compound": "O=S(=O)(Nc1ccc(S(=O)(=O)N2CCOCC2)cc1)c1ccccc1", "displacement": -1},
      {"compound": "O=C(CC1SC(=Nc2ccccc2)N(c2ccccc2)C1=O)Nc1ccc(F)cc1", "note": "(stereo not drawn)", "displacement": -11.4},
      {"compound": "O=S(=O)(NCCO)c1ccc2c(c1)C(=NO)c1cc(S(=O)(=O)NCCO)ccc1-2", "displacement": -1.5},
      {"compound": "CCOC(=O)COc1ccccc1/C=N/NC(=O)COc1cccc(Br)c1", "displacement": -3},
      {"compound": "O=C(O)c1cnn2c1NC(c1ccc(F)cc1)CC2C(F)(F)F", "note": "(stereo not drawn)", "displacement": 9.4},
      {"compound": "O=C(NN1C(=O)/C(=C/c2ccccc2)SC1=S)c1cccnc1", "displacement": -10.9},
      {"compound": "Cc1nc2ccccn2c1C(=O)NC1CCCC1", "displacement": 12.7},
      {"compound": "O=C(COc1ccc(Br)cc1)Nc1cccc(I)c1", "displacement": 13.6},
      {"compound": "O=C(NCCOc1ccccc1)c1cccc2ccccc12", "displacement": -17.9},
      {"compound": "O=C(Nc1ccccc1Cl)c1cncc(Br)c1", "displacement": 118},
      {"compound": "O=C(CCCN1C(=O)/C(=C\\c2cccs2)SC1=S)Nc1ccccc1O", "displacement": 10.6},
      {"compound": "NS(=O)(=O)c1ccc(N=Nc2c(-c3ccccc3)[nH]n(-c3nc(-c4ccccc4)cs3)c2=O)cc1", "displacement": -7.6},
      {"compound": "O=C(Nc1ccc(Oc2ccccc2)cc1)c1ccc(Cl)cc1[N+](=O)[O-]", "displacement": -5.8},
      {"compound": "CCOC(=O)c1c(C)n(-c2ccc(OCC)cc2)c2ccc(O)cc12", "displacement": -6.7},
      {"compound": "COc1ccc(CCNC(=O)c2ccc(C#Cc3ccccc3)cc2)cc1OC", "displacement": 3.1},
      {"compound": "CCOc1ccc2nc(SCC(=O)Nc3ccccc3OCC)sc2c1", "displacement": -8.1},
      {"compound": "CC1(C)CC(=O)C/C(=N/NC(=O)c2cc3ccccc3cc2O)C1", "displacement": -15.8},
      {"compound": "O=C(O)c1cc2ccccc2c([N+](=O)[O-])c1O", "displacement": 7.9},
      {"compound": "CCOC(=O)c1c(NC(=O)C23CC4CC(CC(C4)C2)C3)sc(C(=O)Nc2ccccc2C)c1C", "displacement": 49.5}
    ]}
  ]
}
